# Measurements reported in PubChem BioAssay AID504332 (National Center for Advancing Translational Sciences (NCATS), 2011).
# “And” between values parts separate entries of the source, which are not always exact repeats. Equal values may be shown once. About 31,000 (8.9%) of roughly 350,000 compounds were called active. Inconclusive means that the source gave no clear call. Such entries were picked first, then a sample of the others. Calls follow the shape of the dose curve; as a rule, active = well fitted inhibition curve with a large enough effect; inconclusive = small, poorly fitted or top-dose-only effect; inactive = no such curve, though single readings can be large or run the other way. Potencies of inconclusive entries are doubtful fits and often do not repeat. The source holds several records for some structures; these can differ, active in one and inactive in another.
# Target: Histone-lysine N-methyltransferase EHMT2 (Homo sapiens) (UniProt Q96KQ7)
# Sequence of UniProt Q96KQ7 (Q96KQ7 whole entry, looked up): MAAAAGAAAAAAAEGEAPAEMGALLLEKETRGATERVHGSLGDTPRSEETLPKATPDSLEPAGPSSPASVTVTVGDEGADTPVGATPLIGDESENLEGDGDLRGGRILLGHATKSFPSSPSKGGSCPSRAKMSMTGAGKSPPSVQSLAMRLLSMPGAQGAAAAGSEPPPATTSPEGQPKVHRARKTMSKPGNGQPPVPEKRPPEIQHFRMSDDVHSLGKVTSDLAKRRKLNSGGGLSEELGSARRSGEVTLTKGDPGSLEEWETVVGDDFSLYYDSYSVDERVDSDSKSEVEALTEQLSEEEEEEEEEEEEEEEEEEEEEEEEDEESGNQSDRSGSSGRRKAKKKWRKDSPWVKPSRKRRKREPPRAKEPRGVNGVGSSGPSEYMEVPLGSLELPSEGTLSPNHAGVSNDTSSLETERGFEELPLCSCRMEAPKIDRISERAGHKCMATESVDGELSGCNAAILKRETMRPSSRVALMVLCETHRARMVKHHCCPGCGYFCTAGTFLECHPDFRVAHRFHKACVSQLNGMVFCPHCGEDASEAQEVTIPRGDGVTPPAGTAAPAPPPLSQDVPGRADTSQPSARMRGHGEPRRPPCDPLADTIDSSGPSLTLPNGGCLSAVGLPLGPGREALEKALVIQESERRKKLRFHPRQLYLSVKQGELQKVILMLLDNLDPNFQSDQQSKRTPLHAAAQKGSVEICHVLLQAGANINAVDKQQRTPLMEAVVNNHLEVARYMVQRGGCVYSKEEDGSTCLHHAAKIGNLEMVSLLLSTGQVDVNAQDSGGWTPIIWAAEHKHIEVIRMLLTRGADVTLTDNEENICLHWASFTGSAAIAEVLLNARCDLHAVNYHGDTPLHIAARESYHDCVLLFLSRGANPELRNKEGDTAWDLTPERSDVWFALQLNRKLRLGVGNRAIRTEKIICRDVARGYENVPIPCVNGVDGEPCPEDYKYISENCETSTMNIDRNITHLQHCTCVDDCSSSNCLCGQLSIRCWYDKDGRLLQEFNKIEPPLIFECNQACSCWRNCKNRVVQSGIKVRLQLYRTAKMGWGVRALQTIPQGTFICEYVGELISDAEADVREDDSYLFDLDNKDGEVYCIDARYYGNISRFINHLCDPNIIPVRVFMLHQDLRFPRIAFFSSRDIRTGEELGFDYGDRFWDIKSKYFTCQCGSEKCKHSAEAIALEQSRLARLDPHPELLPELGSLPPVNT
# Assay: qHTS Assay for Inhibitors of Histone Lysine Methyltransferase G9a; also: nearly all actives have a fitted effect of over 75% in size
# Details: G9a H3K9 monomethylation, AlphaScreen, 2 h; activity, negative = inhibition: at 59 µM (top of the series) unless noted
# How it was run: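 Step 1: enzyme (final 20 nM) with compound, 15 min RT. Step 2: substrate peptide 500 nM and SAM 20 uM, 2 h RT. Step 3: anti-H3K9me1 antibody and AlphaScreen beads, 10 min, then plate read.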
# % is scaled to controls: 0 for no effect and ±100 for the full control effect; potency is read from the fitted curve at half-maximal effect; tags tell the direction and shape of the fitted curve.
SMILES,Potency,"activity, negative = inhibition"
NC(=O)c1cc(S(=O)(=O)NCCCc2ccco2)cs1,inactive,–
CC(C)C1N=C(c2ccc3c(c2)OCO3)CC(c2ccccc2O)N1 (centres undefined),"inconclusive: 25.1 µM [inhibitor, single point]",–
CCN(CC)CCN=C1CCCc2ccccc2N1,"inconclusive: 89.1 µM [inhibitor, single point]",–
COc1ccc(Nc2nc(-c3ccc(OC)cc3)c(CCC(=O)O)s2)cc1,"inconclusive: 89.1 µM [inhibitor, single point]",–
CCOC(=O)c1cnc2ccc(OC)cc2c1Nc1ccc(N2CCN(C)CC2)cc1,active: 35.5 µM,–
CCOC(=O)C1CCCN(C(=O)c2[nH]c3ccccc3c2Sc2ccc(Cl)cc2)C1 (centres undefined),active: 8.91 µM,–
O=C(O)Cc1ccc(NC(=S)Nc2ccc(Br)cc2Cl)cc1,"inconclusive: 79.4 µM [inhibitor, partial curve, poor fit]",–
S=c1[nH]nc(-c2ccc(Cl)cc2)n1CC1CCCO1 (centres undefined),active: 7.94 µM,–
C/C(N)=C(/C#N)C(=O)COC(=O)CNS(=O)(=O)c1ccc(C)cc1,"inconclusive: 44.7 µM [inhibitor, partial curve, poor fit]",–
CC1(c2ccccc2)NC(=S)N2C1NC(=S)N2c1ccccc1 (centres undefined),active: 50.1 µM,–
CC(C)Oc1ccc(CNC(=O)Cn2ncn3nc(-c4cccs4)cc3c2=O)cc1,inactive,–
CC(C)CC(C(=O)Nc1oc(-c2ccco2)c(-c2ccco2)c1C#N)N1C(=O)c2ccccc2C1=O (centres undefined),active: 22.4 µM,–
CCCC(=O)OCC(=O)Nc1cc(Cl)ccc1[N+](=O)[O-],"inconclusive: 44.7 µM [inhibitor, partial curve, poor fit]",–
COc1ccc(C2(c3ccc(OC)cc3)NC(=O)N(CC(=O)Nc3ccc(N4CCOCC4)cc3)C2=O)cc1,active: 39.8 µM,–
CCn1c(SCC(=O)Nc2ccccc2-c2ccccc2)nnc1-c1ccoc1C,"inconclusive: 89.1 µM [inhibitor, single point]",–
Cc1nc2ccccn2c1C(=O)NNC(=S)Nc1ccc(Cl)cc1,active: 1.26 µM,–
CC(=O)N(CCC(c1ccccc1)c1ccco1)Cc1cccs1 (centres undefined),"inconclusive: 2 µM [inhibitor, full curve, poor fit]",–
Cc1ccc(C)c(-c2csc(N/N=C/c3ccco3)n2)c1,"inconclusive: 5.62 µM [inhibitor, full curve, poor fit]",–
CC1C(=O)C(=O)C=CN1C (centres undefined),"inconclusive: 0.794 µM [inhibitor, full curve, poor fit]",–
COc1ccc2[nH]cc(CCCN3C(=O)c4ccccc4C3=O)c2c1,"inconclusive: 89.1 µM [inhibitor, single point]",–
CN1C(C(=O)NCc2cccs2)=CC(c2ccc(F)cc2)=NS1(=O)=O,inactive,–
COCCNS(=O)(=O)c1ccc2c(c1)n(C)c(=O)n2C,active: 4.47 µM,–
COCCN(C(=O)CCC(=O)Nc1nccs1)C(C(=O)NCCC(C)C)c1ccc(OC)cc1 (centres undefined),inactive,–

SMILES,Potency,"activity, negative = inhibition"
O=C(Nc1ccc(S(=O)(=O)N2CCCCC2c2cccnc2)cc1)c1c(F)cccc1F (centres undefined),"inconclusive: 25.1 µM [inhibitor, partial curve, poor fit]",–
O=C(COC(=O)c1cc(Br)ccc1O)Nc1cccnc1Cl,"inconclusive: 56.2 µM [inhibitor, partial curve]",–
Cn1c(=O)oc2cc(S(=O)(=O)N3CCCC3)ccc21,"inconclusive: 89.1 µM [inhibitor, partial curve, poor fit]",–
Cc1ccccc1NC(=O)Cn1c(O)c(N=NC(=O)c2ccccc2O)c2ccccc21,"inconclusive: 3.16 µM [inhibitor, partial curve, poor fit]",–
Cc1ccc(-n2nc(C)c3c2NC2=C(C(=O)CC(C)(C)C2)C3c2ccccc2OCC(=O)O)cc1 (centres undefined),"inconclusive: 89.1 µM [inhibitor, single point]",–
O=C(Nc1nccs1)c1ccc(-c2cccc([N+](=O)[O-])c2)o1,inactive,–
O=C(Nc1ccc(-c2n[nH]c(=S)o2)cc1)c1ccccc1,active: 31.6 µM,–
CC(C)(C)NC[C@@H](O)COc1nsnc1N1CCOCC1,–,inactive: 0.959% [at 2.33 µM]
C#CCOCCOCCOCCNc1nc(N2CCN(C(=O)[C@H](CCCCN)n3cc(C(N)CO)nn3)CC2)nc(N2CCN(C(=O)[C@H](CCC(=O)O)n3cc(C(N)[C@H](C)CC)nn3)CC2)n1 (some centres undefined),"inconclusive: 7.08 µM [inhibitor, single point]",–
COc1ccc2c(c1)OC/C(=C\c1ccc(OC)c(O)c1)C2=O,–,inconclusive: -55.6% [inhibitor] [at 2.33 µM]
Cn1nc(C(=O)NCc2ccc(Cl)cc2)c2c1-c1ccccc1SC2,"inconclusive: 28.2 µM [inhibitor, partial curve, poor fit]",–
COC(=O)CN1C(=O)COc2ccc(S(=O)(=O)NCc3ccc(F)cc3)cc21,inactive,–
Cn1cnnc1SCC(=O)c1ccc2c(c1)CCCC2,"inconclusive: 31.6 µM [inhibitor, single point]",–
CCOC(=O)C1C(c2ccc(O)c(OCC)c2)NC(=S)NC1(O)C(F)(F)F (centres undefined),"inconclusive: 3.16 µM [inhibitor, full curve, poor fit]",–
Cc1ccc(CNC(=O)C2CC(c3ccc(C(F)(F)F)cc3)=NO2)o1 (centres undefined),"inconclusive: 11.2 µM [inhibitor, single point]",–
CCOc1cc(C2c3c(-c4ccc(Br)cc4)n[nH]c3C(=O)N2c2ccc(Cl)cc2)ccc1O (centres undefined),inactive,–
C=CCn1c(CSCc2ccc(Cl)cc2Cl)nnc1SCC(=O)Nc1ccc(C(=O)O)cc1,"inconclusive: 89.1 µM [inhibitor, single point]",–
Cc1c(N=Cc2cccs2)c(=O)n(-c2ccccc2)n1C,"inconclusive: 8.91 µM [inhibitor, partial curve, poor fit]",–
CCOC(=O)C1CCCN(Cc2cc(=O)oc3cc(C)c(C)cc23)C1 (centres undefined),"inconclusive: 89.1 µM [inhibitor, single point]",–
Cc1ccc(O)c(N=Nc2ccccc2)n1,inactive and active: 15.8 µM and active: 11.2 µM,–
O=C(/C=C/c1ccccc1[N+](=O)[O-])N1CCN(c2ccccc2F)CC1,active: 56.2 µM,–
COc1ccc(Cc2nnnn2CC(=O)O)cc1,"inconclusive: 89.1 µM [inhibitor, single point]",–
O=S(=O)(Nc1ccc(N=Nc2ccc(O)c3ccccc23)cc1)c1ccccc1,"inconclusive: 20 µM [inhibitor, partial curve, poor fit]",–

SMILES,Potency,"activity, negative = inhibition"
COC(=O)Cc1[nH]n(-c2nc3ccccc3s2)c(=O)c1C(C)=O,"inconclusive: 8.91 µM [inhibitor, full curve, poor fit]",–
COc1ccc(NC(=O)CN2CCN(CC(=O)Nc3ccc(OC)cc3)CC2)cc1,"inconclusive: 22.4 µM [inhibitor, partial curve, poor fit]",–
N#Cc1nc(Cc2cccc3ccccc23)oc1N1CCCCC1,active: 15.8 µM,–
CC1C/C(=C/c2ccncc2)C(=O)/C(=C/c2ccncc2)C1 (centres undefined),inactive,–
CCOc1ccc(C(=O)c2cc3ccc(O)cc3oc2=O)cc1,inactive,–
COc1ccc(S(=O)(=O)N(C)C)cc1NCC(=O)Nc1ccc(Br)cc1F,inactive,–
CCCCc1ccc(NC(=O)CSC2=NN3CCCC(=O)N=C3S2)cc1,inactive,–
CN1CCN(C(CNC(=O)c2ccc(Br)o2)c2ccc(F)cc2)CC1 (centres undefined),"inconclusive: 79.4 µM [inhibitor, single point]",–
Oc1ccc(/C=N/N2CCN(c3ccccn3)CC2)cc1,"inconclusive: 79.4 µM [inhibitor, single point]",–
CC(c1ccco1)N(C(=O)c1ccccc1NS(=O)(=O)c1cc([N+](=O)[O-])ccc1Cl)c1ccccn1 (centres undefined),active: 3.98 µM,–
O=C(CSc1nc2ccccc2nc1Cc1ccc(Cl)cc1)NCCc1ccccc1,inactive,–
COc1ccc(CNCc2ccc(C)cc2)c(OC)c1,active: 35.5 µM,–
CC(=O)Nc1ccc(S(=O)(=O)/N=C2/NC(=O)/C(=C\c3ccco3)S2)cc1,active: 22.4 µM,–
CCOc1cc(C(C(=O)NCC2CCCO2)N(C(=O)Cn2nnc3ccccc32)c2ccc(C(C)=O)cc2)ccc1O (centres undefined),"inconclusive: 89.1 µM [inhibitor, single point]",–
C[C@H]1CCC(=O)N(CCSc2ccc(Br)cc2)CC1,–,inconclusive: -67.1% [inhibitor] [at 2.33 µM]
O=[N+]([O-])c1cc(C(F)(F)F)ccc1NCCCCNS(=O)(=O)c1ccc2ccccc2c1,"inconclusive: 31.6 µM [inhibitor, full curve]",–
Cc1ccc(C)c(S(=O)(=O)N2CCN(C(=O)CCCc3c[nH]c4ccccc34)CC2)c1,"inconclusive: 10 µM [inhibitor, partial curve, poor fit]",–
CCOc1ccc(NC(=O)C(NS(=O)(=O)c2ccc3c(c2)CCN3C(C)=O)C(C)C)cc1 (centres undefined),inactive,–
Oc1csc(Cc2nc(-c3ccccc3F)cs2)n1,"inconclusive: 50.1 µM [inhibitor, partial curve]",–
Cc1cc(C2=NNC(=NC3CC3)SC2)c(C)n1-c1ccccc1F,"inconclusive: 28.2 µM [inhibitor, single point]",–
COc1ccc(Br)cc1C(=O)NC(=S)Nc1c(C)n(C)n(-c2ccccc2)c1=O,"inconclusive: 31.6 µM [inhibitor, partial curve, poor fit]",–
Cc1ccc2c(c1)c1c3n2CCCNC3CCC1 (centres undefined),inactive,–
NC(=O)C1CCN(S(=O)(=O)c2cccc(C(=O)O)c2)CC1,"inconclusive: 3.16 µM [inhibitor, single point]",–
